Experimental findings from publication PMC4336329 (PLoS ONE, 2015) are described below.

Structures are written as SMILES. The campaign covered roughly 310,000 compounds. About 14,000 (4.5%) showed an effect of 50% or more. The effect is printed as a negative number. The list shows a part of the results.
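Further: peak tail current of the secondary pulse compared with the same well before compound.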

The target of the experiment is human ether-à-go-go-related gene (hERG) potassium channel (human, UniProt Q12809). The experiment is described as follows: primary screen, population patch clamp on CHO cells stably expressing hERG.
Sequence of human ether-à-go-go-related gene (hERG) potassium channel (Q12809 whole entry, looked up): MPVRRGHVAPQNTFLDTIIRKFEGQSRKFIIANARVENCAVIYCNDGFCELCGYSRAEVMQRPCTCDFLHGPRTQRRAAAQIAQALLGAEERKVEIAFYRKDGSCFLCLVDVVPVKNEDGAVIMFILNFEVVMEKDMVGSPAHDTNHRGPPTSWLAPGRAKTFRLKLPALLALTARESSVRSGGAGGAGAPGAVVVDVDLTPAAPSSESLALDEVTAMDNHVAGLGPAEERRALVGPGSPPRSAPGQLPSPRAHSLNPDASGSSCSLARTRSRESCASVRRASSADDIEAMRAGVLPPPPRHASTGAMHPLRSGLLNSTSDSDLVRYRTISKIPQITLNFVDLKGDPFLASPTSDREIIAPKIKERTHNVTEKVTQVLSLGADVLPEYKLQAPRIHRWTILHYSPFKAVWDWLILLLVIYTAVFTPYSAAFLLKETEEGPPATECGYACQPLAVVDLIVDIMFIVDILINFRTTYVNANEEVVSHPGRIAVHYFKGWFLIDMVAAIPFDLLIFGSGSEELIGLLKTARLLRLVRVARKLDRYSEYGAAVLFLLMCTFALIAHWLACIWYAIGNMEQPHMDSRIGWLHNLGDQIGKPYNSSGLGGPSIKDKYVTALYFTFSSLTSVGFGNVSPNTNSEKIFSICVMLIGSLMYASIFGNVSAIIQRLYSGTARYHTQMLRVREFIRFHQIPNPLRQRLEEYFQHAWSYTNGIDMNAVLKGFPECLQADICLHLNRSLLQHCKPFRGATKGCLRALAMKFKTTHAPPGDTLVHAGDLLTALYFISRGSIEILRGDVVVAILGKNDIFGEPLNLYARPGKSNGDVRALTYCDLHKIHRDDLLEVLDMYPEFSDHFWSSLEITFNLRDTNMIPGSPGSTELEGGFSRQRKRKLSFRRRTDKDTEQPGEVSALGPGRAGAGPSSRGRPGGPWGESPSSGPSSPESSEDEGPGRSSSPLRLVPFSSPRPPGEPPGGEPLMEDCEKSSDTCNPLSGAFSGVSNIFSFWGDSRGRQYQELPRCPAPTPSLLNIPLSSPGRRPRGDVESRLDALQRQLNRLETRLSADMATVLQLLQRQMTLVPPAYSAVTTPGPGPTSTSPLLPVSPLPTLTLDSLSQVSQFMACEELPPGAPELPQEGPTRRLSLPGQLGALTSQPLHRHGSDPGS
As to `Cc1nc2ccc(S(=O)(=O)N3CCCCC3)cc2s1`, the “hERG current change (%, negative = inhibition) at 10uM” value is on record as 0.757%.
For `N#CCC(=O)Nc1ccc(C(=O)NCCC(c2ccccc2)c2ccccc2)cc1` the value was 22.4%; for `Cc1nnc(SCC2=C(C(=O)O)N3C(=O)C(NC(=O)Cn4nc(C)c(Cl)c4C)C3SC2)s1` (centres unmarked), 28%; for `O=C(Cc1ccc(Cl)cc1)c1c[nH]c(C(=O)NCCCn2ccnc2)c1`, -43.9%.
For `O=C(OCc1nc2ccccc2s1)c1cnccn1` the value was -17.3%.
For `O=C(N/N=C/c1cccnc1)c1ccccc1OCc1cccc(Br)c1` the value was -17.1%; for `CCC(=O)Nc1nc(N)n(-c2ccccc2)n1`, 9.2%.
Take `COc1ccc(NC(=O)CN(C)C(=O)CNC(=O)C2CCCCC2)cc1`: the “hERG current change (%, negative = inhibition) at 10uM” value turned out to be 3.42%.
For `CCCCCC1CCC(c2ccc(/C(N)=N/O)cc2)CC1` (centres unmarked) the value was 22.8%.
For `COc1ccccc1NC(=O)C1CCCN1S(=O)(=O)c1ccc(Cl)cc1` (centres unmarked) the value was 9.52%.
With `CC(C)c1cc(C(=O)N2CCCC(C(=O)c3ccc4ccccc4c3)C2)on1` (centres unmarked), the “hERG current change (%, negative = inhibition) at 10uM” value is -21.8%.
Regarding `O=S(=O)(c1ccc(NC(=S)N/N=C/c2ccc(Oc3ccccc3)cc2)cc1)N1CCOCC1`, the “hERG current change (%, negative = inhibition) at 10uM” value is given as 1.52%.
Regarding `CCCc1cc(=S)n2c([nH]c3ccccc32)c1C#N`, the “hERG current change (%, negative = inhibition) at 10uM” value is recorded as 1.66%.
Consider `CC(=O)Nc1ccc(NC(=O)Cn2cnc3c(nnn3Cc3ccc(F)cc3)c2=O)cc1`, for which the “hERG current change (%, negative = inhibition) at 10uM” value is recorded as 24.2%.
As to `CC(C)COC(=O)n1c(=O)oc2cc(S(=O)(=O)N3CCCCC3)ccc21`, the “hERG current change (%, negative = inhibition) at 10uM” value was -6.37%.
In the case of `CC(Sc1ncnc2c1cnn2-c1ccccc1)C(=O)Nc1ccc(N2CCOCC2)cc1` (centres unmarked), the “hERG current change (%, negative = inhibition) at 10uM” value is reported as 17.2%.
For `CCOc1ccccc1C(=O)NCC(=O)NCC(c1ccc(OC)cc1)N1CCOCC1` (centres unmarked) the value was -12.4%.
Regarding `CCn1ccnc1CN1CCN(CCC(C)C)C(CCO)C1` (centres unmarked), the “hERG current change (%, negative = inhibition) at 10uM” value is 18.9%.
The figure for `Cc1cc(C)n2nc(C(=O)OCC(=O)Nc3ccc4c(c3)OCCO4)nc2n1` is 3.56%; for `CCOc1cc(/C=C(\CC(=O)O)c2nc3ccccc3s2)ccc1OC` it is -0.579%.
For `COc1cc(O)c(C(CCN2CCN(c3ccccc3)CC2)c2ccc3c(c2)OCO3)c(OC)c1` (centres unmarked) the value was -16.6%; for `CCn1c(O)c(N=Nc2cccc(S(=O)(=O)N3CCOCC3)c2)c(=O)n(CC)c1=S`, -8.78%.
`O=C(CSc1nnc(NC(=O)C2CC2)s1)Nc1ccc2c(c1)OCCO2`: the “hERG current change (%, negative = inhibition) at 10uM” value was 5.48%.
The figure for `CCOC(=O)C1(Cc2ccc(Cl)cc2)CCN(C(=O)C2=NNC(=O)CC2)CC1` is -69.6%; for `Nc1nc(SCn2nnc3ccccc3c2=O)n[nH]1` it is 18.4%.
Turning to `COc1cccc(C(=O)CN2C(=O)C(C)(C)Oc3ccc(C(=O)N4CCCCCC4)cc32)c1`, the “hERG current change (%, negative = inhibition) at 10uM” value was -9.93%.
For `O=C(COc1ccccc1Cl)NNC(=O)c1ccc2nc[nH]c2c1` the value was 1.82%; for `CCOC(=O)[C@H]1[C@H]2COc3ccc(Cl)cc3[C@@H]2N2C(=O)CN(Cc3ccc(C)cc3)C(=O)[C@@]12C`, 5.81%.
Regarding `COc1ccc(N2CCN(C(=O)COC(=O)Cc3cccc(OC)c3)CC2)cc1`, the “hERG current change (%, negative = inhibition) at 10uM” value is -20%.
As to `O=C(CC(=O)c1ccccc1O)c1cccc(F)c1`, the “hERG current change (%, negative = inhibition) at 10uM” value is reported as -7.86%.
Turning to `CCn1cc(CNCc2cn[nH]c2-c2cc3ccccc3o2)cn1`, the “hERG current change (%, negative = inhibition) at 10uM” value is on record as -14.1%.
The figure for `CCc1nc(SCC(=O)Nc2ccccc2OC)n[nH]1` is 17.3%; for `Nc1n[nH]c2cccc(Cl)c12` it is 6.18%; for `CC(C)CCC1=NN(C(=O)c2ccco2)C(O)(C(F)(F)F)C1` (centres unmarked) it is 0.342%.
With `CC(C)CNC(=O)C(=O)NCc1ccccn1`, the “hERG current change (%, negative = inhibition) at 10uM” value is 21.4%.
Consider `O=C(O)/C=C\C(=O)O.OCCN1CCN(C2CCC(c3ccc(F)cc3)c3ccc(F)cc32)CC1` (centres unmarked), for which the “hERG current change (%, negative = inhibition) at 10uM” value was -44.5%.
The figure for `CC(=O)Nc1ccc(NC(=O)Cc2sc(-c3cccnc3)nc2-c2ccc(C)cc2)cc1` is -44.8%; for `COC(=O)NNC(=O)c1ccccc1OC` it is 11.2%; for `COc1ccc(/C(C)=N\NC(=O)c2ccc3c(c2)OCO3)cc1OC` it is -14.7%.
The figure for `COC(=O)c1cc(S(=O)(=O)Nc2ccc(C)c(F)c2)c[nH]1` is 9.98%; for `Nc1cc(=O)[nH]c(SCC(=O)Nc2ccc([N+](=O)[O-])cc2)n1` it is 1.76%.
The figure for `O=C(NCc1ccncc1)c1cc2ccccc2nc1Cl` is -20%; for `Cc1nn(-c2ccccc2Cl)c(Cl)c1/C=C(\C#N)C(N)=O` it is 5.3%; for `CCn1nc(C(=O)NNC(=O)COc2ccc(OC)cc2)c2ccccc2c1=O` it is -23.4%.
